Hit rate of the full screen: of about 310,000 compounds, about 2,200 (0.71%) showed an effect of 50% or more. The effect is printed as a negative number. This is one part of the list.
molecular target: human ether-à-go-go-related gene (hERG) potassium channel (human, UniProt Q12809); test: primary screen, population patch clamp on CHO cells stably expressing hERG
Sequence (Q12809 whole entry, looked up): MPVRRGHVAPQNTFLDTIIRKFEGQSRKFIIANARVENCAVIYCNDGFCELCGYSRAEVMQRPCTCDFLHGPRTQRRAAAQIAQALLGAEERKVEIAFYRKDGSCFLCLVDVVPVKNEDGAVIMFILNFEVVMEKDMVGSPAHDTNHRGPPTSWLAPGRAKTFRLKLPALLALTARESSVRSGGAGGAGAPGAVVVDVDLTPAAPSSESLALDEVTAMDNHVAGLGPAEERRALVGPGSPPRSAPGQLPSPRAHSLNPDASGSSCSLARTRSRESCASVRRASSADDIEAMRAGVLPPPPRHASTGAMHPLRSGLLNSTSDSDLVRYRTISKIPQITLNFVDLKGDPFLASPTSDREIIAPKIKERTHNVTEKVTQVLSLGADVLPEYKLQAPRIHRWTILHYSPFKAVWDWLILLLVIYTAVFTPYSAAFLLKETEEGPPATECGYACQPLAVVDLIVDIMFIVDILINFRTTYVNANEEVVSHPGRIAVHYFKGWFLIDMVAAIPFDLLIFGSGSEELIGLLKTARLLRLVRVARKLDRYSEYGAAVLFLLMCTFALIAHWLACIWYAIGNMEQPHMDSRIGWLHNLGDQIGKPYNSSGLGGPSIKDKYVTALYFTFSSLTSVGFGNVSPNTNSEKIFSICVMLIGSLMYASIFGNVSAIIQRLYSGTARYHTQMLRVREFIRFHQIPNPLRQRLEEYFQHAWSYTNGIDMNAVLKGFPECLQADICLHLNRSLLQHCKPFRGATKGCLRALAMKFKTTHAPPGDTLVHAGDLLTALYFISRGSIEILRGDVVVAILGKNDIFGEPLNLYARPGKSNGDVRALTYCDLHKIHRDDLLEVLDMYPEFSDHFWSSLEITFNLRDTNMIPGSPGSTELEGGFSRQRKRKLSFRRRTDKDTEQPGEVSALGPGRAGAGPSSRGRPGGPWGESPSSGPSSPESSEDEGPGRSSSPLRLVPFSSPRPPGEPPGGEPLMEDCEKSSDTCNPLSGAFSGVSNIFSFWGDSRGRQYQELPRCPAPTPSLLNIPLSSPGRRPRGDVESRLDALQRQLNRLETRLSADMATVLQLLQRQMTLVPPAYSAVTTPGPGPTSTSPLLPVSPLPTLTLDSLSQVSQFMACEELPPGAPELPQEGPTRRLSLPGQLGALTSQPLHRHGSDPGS

Row | SMILES | hERG current change (%, negative = inhibition) at 1uM [%]
1 | Cn1c(=O)c(C=Nc2ccccc2)c(O)c2ccccc21 | 12.5
2 | CSc1nc(C)cc(NC(N)=O)n1 | 11.1
3 | CCC(=O)N1c2ccc(S(=O)(=O)CCC(=O)N3CCN(c4ccccc4)CC3)cc2CC1C (stereo not drawn) | 16
4 | C=CCSc1nc(N)c(NC(=O)c2ccco2)c(=O)[nH]1 | 9.39
5 | CC1CCCC(C)N1C(=O)COC(=O)C1CCN(S(=O)(=O)c2ccc3c(c2)OCCO3)CC1 (stereo not drawn) | 7.49
6 | COc1ccc(C(CC(=O)Nc2nccs2)C(C)C)cc1 (stereo not drawn) | 10.9
7 | CC(C)CC(=O)Nc1cc(NC(=O)CC(C)C)cc(C(=O)NC(C)(C)C)c1 | 13
8 | CN(C)C(=O)c1ccc(NC(=O)c2ccccc2Sc2ccccc2C#N)cc1 | 13.4
9 | COc1cc(-c2nc(S(=O)(=O)c3ccc(Cl)cc3)c(N3CCOCC3)o2)cc(OC)c1OC | 11.7
10 | COc1ccccc1Nc1nnc(SCC(=O)Nc2nc(-c3ccc(F)cc3)cs2)s1 | 18.4
11 | CCOC(=O)c1cn(Cc2cccc(C)c2)nn1 | 5.49
12 | CCOC(=O)c1sc(NC(=O)CC(C)c2ccccc2)nc1C (stereo not drawn) | 13.4
13 | CCOc1ccc(N(CC(=O)NCc2ccc(F)cc2)S(=O)(=O)c2c(C)noc2C)cc1 | 0.252
14 | COc1ccc(OCCNc2c([N+](=O)[O-])c(=O)oc3ccccc23)cc1 | 14.6
15 | O=C1CS(=O)(=O)N(Cc2cccc(F)c2)c2ccc(Br)cc21 | 16.2
16 | COC(=O)c1sc(NC(=O)CSc2nncs2)c(C(=O)OC)c1C | 6.2
17 | Cc1noc(C)c1CSc1nc2[nH]ncc2c(=O)n1-c1ccccc1 | 5.8
18 | COc1ccccc1-c1nn2c(C(F)(F)F)nnc2s1 | 11.6
19 | COCOc1cc(O)c2c(=O)c(OCOC)c(-c3ccc(OCOC)c(OCOC)c3)oc2c1 | 2.95
20 | COc1ccc(OC)c(NC(=O)CCCNC(=O)c2ccc(Cl)cc2)c1 | 4.49
21 | CCCN1CCC(=O)N([C@H](CSc2ccccc2)CC(C)C)CC1 | -31.8
22 | Cc1ccc([N+](=O)[O-])cc1N=Cc1ccc(Br)s1 | 0.131
23 | Cc1ccc(NC2=CC(=O)C(=O)c3ccccc32)cc1 | -0.518

Row | SMILES | hERG current change (%, negative = inhibition) at 1uM [%]
24 | Cc1cc(/C=C(\C#N)C(=O)NCc2ccco2)c(C)n1-c1cccnc1 | 14.5
25 | COc1ccc(Cl)c2c1[nH]c1nc(SCc3ccccn3)nnc12 | 23.9
26 | Cc1cccc(C2N(c3ccc(F)cc3)C(=O)C3CCCN32)c1 (stereo not drawn) | -7.7
27 | c1ccc(NC2=NCCN2CC2CCCCCC2)cc1 | 4.78
28 | COc1cc(C(=O)NCc2nnc(SCC(=O)Nc3ccc4c(c3)OCO4)o2)cc(OC)c1OC | 20.3
29 | CCCCOC(=O)c1ccc(NC(=O)c2c(OC)cccc2OC)cc1 | 13.3
30 | Nc1nonc1-n1nnc(C(=O)N/N=C/c2ccco2)c1CSc1ccccc1 | 11.9
31 | Cc1nc(S(=O)(=O)c2ccc(Cl)cc2Cl)nc2c1CCC2 | 19.3
32 | CC(C)CC(=O)NC1(C(F)(F)F)C(=O)N(Cc2ccccc2)C2=C1C(=O)CC(C)(C)C2 (stereo not drawn) | -9.68
33 | Cc1ccc(OCc2nc(-c3cccnc3)no2)cc1C | 6.73
34 | COc1ccc2nc(C)[nH]c(=O)c2c1 | 9.62
35 | CCc1ccc(CNC(=O)CCS(=O)(=O)Cc2ccccc2F)cc1 | 9.27
36 | Cn1cccc1C(C#N)c1ncc(C(F)(F)F)cc1Cl (stereo not drawn) | 6.42
37 | CC(=O)Nc1ccccc1/C=C/c1ccc2c(C)cc(C)c(O)c2n1 | 16.5
38 | COc1ccc(OC)c(S(=O)(=O)N2CCC3(CC2)OCCN3S(=O)(=O)c2cccs2)c1 | -10.3
39 | N#Cc1c(NC(=O)c2ccc(N3CCOCC3)c([N+](=O)[O-])c2)sc2c1CCCC2 | 7.03
40 | CN1CCN(C(=O)CCS(=O)(=O)c2cc3c(cc2Cl)NC(=O)CO3)CC1 | 6.68
41 | Cc1ccc(NC(=O)CSc2nnc(C)n2C2CC2)cc1S(=O)(=O)N1CCOCC1 | 10.6
42 | Cc1ccc(CN2CC(C(=O)N3CC=C(c4ccccc4)CC3)CC2=O)cc1 (stereo not drawn) | -1.5
43 | Cc1ccnc(NC2CCCCC2)c1 | 8.45
44 | CC(=O)NC1CSCC1OC(C)=O (stereo not drawn) | 13
45 | COc1ccc(CCNC(=O)CSc2ccc(-c3ccccc3)nn2)cc1 | -9.1
46 | COc1ccc(CCn2ccc(O)c(Cc3c(F)cccc3Cl)c2=O)cc1OC | 14.4

Row | SMILES | hERG current change (%, negative = inhibition) at 1uM [%]
47 | Cc1ccc(C)c(CNS(=O)(=O)c2c(C(=O)N3CCCC3)c(C)n(C)c2C)c1 | -2.09
48 | CCc1ccc(/C=N/NC(=O)C(=O)NCCCN2CCOCC2)cc1 | -6.93
49 | Cc1cccc2cn[nH]c12 | 9.85
50 | O=C(COC(=O)c1cccc(S(=O)(=O)N2CCCCC2)c1)NC1CCCCC1 | 4.97
51 | CC(=O)Nc1ccc(Nc2ccccc2)cc1 | 10.1
52 | COc1cccc(C(=O)OCCCN(C)C)c1.Cl | 0.536
53 | Cc1nc2ccccn2c1/C(O)=C1\C(=O)C(=O)N(CCN(C)C)C1c1cccnc1 (stereo not drawn) | -5.95
54 | COc1ccc(Cl)cc1-n1c(N)c(C(N)=O)sc1=S | 11.6
55 | COc1ccc(-c2csc(NC(=O)c3ccccc3F)c2C(=O)O)cc1 | 17.8
56 | Oc1cc2c(cc1CN1CCN(c3ccccc3)CC1)CCC2 | 5.59
57 | CC(C)(C)C(=O)Nc1cccc(OC(F)(F)C(F)Cl)c1 (stereo not drawn) | 5.08
58 | C/C(N)=C(/C#N)C(=O)COC(=O)c1cccc(C)c1O | 18.4
59 | COc1ccc(-c2nnc(SCC(=O)c3ccc(O)cc3O)o2)cc1 | 8.51
60 | CC/C(=N\O)c1ccc(O)c(OC)c1 | 8.83
61 | COc1ccc(/C=C/C(=O)OCC(=O)Nc2ccc(OC)c(S(=O)(=O)N3CCCCC3)c2)cc1 | 5.81
62 | CC(C)(C)c1ccc(C2(C)NC(=O)N(CC(=O)NCc3cccs3)C2=O)cc1 (stereo not drawn) | 11.1
63 | Cn1c(=O)oc2cc(S(=O)(=O)NCCC(=O)NCc3ccccc3Cl)ccc21 | 7.95
64 | COC(=O)CSc1nc(-c2ccccc2)nc2ccccc12 | 13.4
65 | CC1(C)CC(=O)C=C(c2cccnc2)C1 | 9.06
66 | CCCNC(=O)c1ccc(N2CCC3(CC2)CC(c2cccc(Br)c2)=NO3)c(NC(=O)c2ccco2)c1 | 7.37
67 | CC(C)(C)N(NC(=O)c1ccccc1)C(=O)c1cccc(C(=O)N(NC(=O)c2ccccc2)C(C)(C)C)c1 | 12.7
68 | CCOc1ccc(C(=O)CCC(=O)N2CCN(c3ncccn3)CC2)cc1 | 3.06
69 | COc1cc(C2C(C#N)=C(N)OC3=C2C(=O)CC(C)(C)C3)c([N+](=O)[O-])cc1OC (stereo not drawn) | 11.1

Row | SMILES | hERG current change (%, negative = inhibition) at 1uM [%]
70 | C=CCn1c(-c2ccc(OC)c(OC)c2)n[nH]c1=S | 14.1
71 | CN(CCC1CCOCC1)Cc1cn[nH]c1-c1ccc(-c2ccccc2)cc1 | -25.9
72 | CCOC(=O)C1=C(c2ccccc2)Nc2ncnn2C1c1ccc(OC)c(OC)c1OC (stereo not drawn) | 8.98
73 | Cn1c(NC(=O)C[n+]2cc(-c3ccccc3)n3c2CCC3)cc(=O)n(C)c1=O.[Cl-] | -1.21
74 | CCn1c(=NC(=O)c2ccco2)sc2cccc(F)c21 | 14.1
75 | Cc1ccc(OCC(=O)NNC(=O)Nc2ccc(Cl)cc2)c(Br)c1 | 16
76 | CNCCC(Oc1ccccc1OC)c1ccccc1.Cl (stereo not drawn) | -13.2
77 | CCCC(=O)Nc1ccc(C(=O)NCCCn2ccnc2)cc1 | -1.2
78 | COc1cc2c(C(=O)NCCCN3CC(C)CC(C)C3)cn(CC(C)C)c(=O)c2cc1OC (stereo not drawn) | -4.54
79 | Cc1ccn(C(=O)c2ccc(NC(=O)C3CC3)cc2)n1 | 14.2
80 | CCc1cccc(NC(=O)Cn2cc(C=O)c3ccccc32)c1 | 0.416
81 | Cc1ccc2nc(Cc3ccc(N)cc3)[nH]c2c1.Cl | 13.4
82 | Cc1cc(OCC(=O)Nc2ccc(Br)cc2)cc2c1C(=O)CC(C)(C)O2 | 4.88
83 | COc1ccc(CNC(=O)C(C)N=C2NS(=O)(=O)c3ccccc32)cc1OC (stereo not drawn) | 13.7
84 | CC(=O)N1N=C(c2cccnc2)OC1c1ccccc1Cl (stereo not drawn) | 3.56
85 | Cc1ccc(-c2nnc(NC(=O)c3c(F)cccc3Cl)s2)cc1 | 11.2
86 | CCC(C)(C)n1nnnc1C(c1ccc2ncccc2c1)N1CCN(Cc2ccc3c(c2)OCO3)CC1 (stereo not drawn) | 3.29
87 | COc1ccccc1CNC(=O)[C@H](C)NC(=O)C1CCN(C(=O)[C@H](CCSC)NC(=O)OC(C)(C)C)CC1 | 4.1
88 | O=C1C(C2=C(O)c3ccccc3C2=O)=Nc2ccccc21 | -12.6
89 | O=C(NCCO)c1cc2ccccc2cc1O | 3.96
90 | CC1CCCCN1C(=O)Cn1c(=O)oc2ccccc21 (stereo not drawn) | -10.5

— PMC4336329 (PLoS ONE, 2015)
